# Measured values: the supplement of paper PMC12217912
# This is one part of the list. Sequences were assembled here from the parent chain. Values near 0.05 are background.
# B1: TEV protease; numbered along this chain (parent)
# chain: MGESLFKGPRDYNPISSSICHLTNESDGHTTSLYGIGFGPFIITNKHLFRRNNGTLVVQSLHGVFKVKDTTTLQQHLVDGRDMIIIRMPKDFPPFPQKLKFREPQREERICLVTTNFQTKSMSSMVSDTSCTFPSGDGIFWKHWIQTKDGQCGSPLVSTRDGFIVGIHSASNFTNTNNYFTSVPKNFMELLTNQEAQQWVSGWRLNADSVLWGGHKVFMVKPEEPFQPVKEATQL
# Variants of: B1
# Test: raw area under fraction-flipped curve 0-4 h after induction (AUC4h, not background-subtracted), DNA-recorder readout of cleavage of the substrate (dimensionless); higher = more cleavage of the substrate by the protease variant
# Settings: temperature: 34 °C; time window: 0-4 h after rhamnose induction
# Procedure: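 In vivo DNA recorder in E. coli TOP10(DE3) ΔrhaA at 34 °C. Each TEVp single-site mutant (parent TEVp 0) is paired with a single-site variant of the 7-mer TEVs (canonical ENLYFQ|S). The substrate sits between flexible linkers in a Bxb1-sfGFP-TEVs-SsrA fusion, so cleavage stabilises Bxb1 and speeds flipping of a recombination array, read by NGS. The value is the raw area under the fraction-flipped curve over 0-4 h after rhamnose induction (AUC4h), with ≥20 reads per time point. It is not background-subtracted; inactive controls average about 0.047.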
# 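Further: Bxb1 expression induced with 0.2% (w/v) L-rhamnose at OD600 near 0.5, cultures sampled hourly, flipped fraction per protease–substrate barcode pair counted by paired-end Illumina sequencing.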
Variant,area with substrate ENLEFQS,area with substrate ENLMFQS,area with substrate ENLIFQS,area with substrate ENLKFQS,area with substrate ENLLFQS,area with substrate ENLNFQS,area with substrate ENLPFQS,area with substrate ENLSFQS,area with substrate ENLVFQS,area with substrate ENLWFQS
MGESLFKGPRDYNPISSSICHLTNESDGHTTSLYGIGFGPFIITNKHLFRRNNGTLVVQSLHGVFKVKDTTTLQQHLVDGRDMIIIRMPKDFPPFPQKLKFREPQREERICLVTTNFQTKSMSSMVSDTSCTFPSGDGIFWKHWIQTKDGQCGSPLVSTRDGFIVGIHSASNFTNTNNYFTSVPKNFMELLTNQEAQQWVSGWRLNADSVLWGFHKVFMVKPEEPFQPVKEATQL [G214F],0.0635,0.0684,–,–,–,–,–,–,–,–
MGESLFKGPRDYNPISSSICHLTNESDGHTTSLYGIGFGPFIITNKHLFRRNNGTLVVQSLHGVFKVKDTTTLQQHLVDGRDMIIIRMPKDFPPFPQKLKFREPQREERICLVTTNFQTKSMSSMVSDTSCTFPSGDGIFWKHWIQTKDGQCGSPLVSTRDGFIVGIHSASNFTNTNNYFTSVPKNFMELLTNQEAQQWVSGWRLNADSVLWGGHKVFMVKPEEPFQPVKEATQC [L235C],0.0874,–,0.0774,0.074,0.0669,0.056,0.0642,0.0672,0.0504,0.0711
MNESLFKGPRDYNPISSSICHLTNESDGHTTSLYGIGFGPFIITNKHLFRRNNGTLVVQSLHGVFKVKDTTTLQQHLVDGRDMIIIRMPKDFPPFPQKLKFREPQREERICLVTTNFQTKSMSSMVSDTSCTFPSGDGIFWKHWIQTKDGQCGSPLVSTRDGFIVGIHSASNFTNTNNYFTSVPKNFMELLTNQEAQQWVSGWRLNADSVLWGGHKVFMVKPEEPFQPVKEATQL [G2N],–,0.0721,–,0.099,–,–,–,–,–,–
MGESLTKGPRDYNPISSSICHLTNESDGHTTSLYGIGFGPFIITNKHLFRRNNGTLVVQSLHGVFKVKDTTTLQQHLVDGRDMIIIRMPKDFPPFPQKLKFREPQREERICLVTTNFQTKSMSSMVSDTSCTFPSGDGIFWKHWIQTKDGQCGSPLVSTRDGFIVGIHSASNFTNTNNYFTSVPKNFMELLTNQEAQQWVSGWRLNADSVLWGGHKVFMVKPEEPFQPVKEATQL [F6T],–,0.0981,–,0.0727,–,–,–,0.0598,–,–
MGESLFHGPRDYNPISSSICHLTNESDGHTTSLYGIGFGPFIITNKHLFRRNNGTLVVQSLHGVFKVKDTTTLQQHLVDGRDMIIIRMPKDFPPFPQKLKFREPQREERICLVTTNFQTKSMSSMVSDTSCTFPSGDGIFWKHWIQTKDGQCGSPLVSTRDGFIVGIHSASNFTNTNNYFTSVPKNFMELLTNQEAQQWVSGWRLNADSVLWGGHKVFMVKPEEPFQPVKEATQL [K7H],–,–,–,–,–,0.0778,–,–,–,0.0612
MGESLFWGPRDYNPISSSICHLTNESDGHTTSLYGIGFGPFIITNKHLFRRNNGTLVVQSLHGVFKVKDTTTLQQHLVDGRDMIIIRMPKDFPPFPQKLKFREPQREERICLVTTNFQTKSMSSMVSDTSCTFPSGDGIFWKHWIQTKDGQCGSPLVSTRDGFIVGIHSASNFTNTNNYFTSVPKNFMELLTNQEAQQWVSGWRLNADSVLWGGHKVFMVKPEEPFQPVKEATQL [K7W],–,–,–,0.097,–,0.0604,0.0878,0.0627,–,–
MGESLFKGPRTYNPISSSICHLTNESDGHTTSLYGIGFGPFIITNKHLFRRNNGTLVVQSLHGVFKVKDTTTLQQHLVDGRDMIIIRMPKDFPPFPQKLKFREPQREERICLVTTNFQTKSMSSMVSDTSCTFPSGDGIFWKHWIQTKDGQCGSPLVSTRDGFIVGIHSASNFTNTNNYFTSVPKNFMELLTNQEAQQWVSGWRLNADSVLWGGHKVFMVKPEEPFQPVKEATQL [D11T],–,–,–,–,–,0.0656,0.067,0.0788,–,–
MGESLFKGPRDYNPISSSICHLTNESDGHTTSLYDIGFGPFIITNKHLFRRNNGTLVVQSLHGVFKVKDTTTLQQHLVDGRDMIIIRMPKDFPPFPQKLKFREPQREERICLVTTNFQTKSMSSMVSDTSCTFPSGDGIFWKHWIQTKDGQCGSPLVSTRDGFIVGIHSASNFTNTNNYFTSVPKNFMELLTNQEAQQWVSGWRLNADSVLWGGHKVFMVKPEEPFQPVKEATQL [G35D],–,–,0.0465,–,0.0355,–,–,–,–,–
MGESLFKGPRDYNPISSSICHLTNESDGHTTSLYGIGFGPFIITNKHLFRRNNGTLVVQGLHGVFKVKDTTTLQQHLVDGRDMIIIRMPKDFPPFPQKLKFREPQREERICLVTTNFQTKSMSSMVSDTSCTFPSGDGIFWKHWIQTKDGQCGSPLVSTRDGFIVGIHSASNFTNTNNYFTSVPKNFMELLTNQEAQQWVSGWRLNADSVLWGGHKVFMVKPEEPFQPVKEATQL [S60G],–,–,–,–,–,0.0615,–,0.0371,–,–
MGESLFKGPRDYNPISSSICHLTNESDGHTTSLYGIGFGPFIITNKHLFRRNNGTLVVQSLHGVFKVKDTTTLQQHLVDLRDMIIIRMPKDFPPFPQKLKFREPQREERICLVTTNFQTKSMSSMVSDTSCTFPSGDGIFWKHWIQTKDGQCGSPLVSTRDGFIVGIHSASNFTNTNNYFTSVPKNFMELLTNQEAQQWVSGWRLNADSVLWGGHKVFMVKPEEPFQPVKEATQL [G80L],–,–,–,–,–,–,0.0613,0.0496,–,–

# Same assay, conditions: temperature: 34 °C; time window: 0-4 h after rhamnose induction
Variant,area with substrate ENLFFQS,area with substrate ENLRFQS,area with substrate ENLHFQS,area with substrate ENLQFQS,area with substrate ENLGFQS
MNESLFKGPRDYNPISSSICHLTNESDGHTTSLYGIGFGPFIITNKHLFRRNNGTLVVQSLHGVFKVKDTTTLQQHLVDGRDMIIIRMPKDFPPFPQKLKFREPQREERICLVTTNFQTKSMSSMVSDTSCTFPSGDGIFWKHWIQTKDGQCGSPLVSTRDGFIVGIHSASNFTNTNNYFTSVPKNFMELLTNQEAQQWVSGWRLNADSVLWGGHKVFMVKPEEPFQPVKEATQL [G2N],0.0724,0.0888,–,–,–
MGESLTKGPRDYNPISSSICHLTNESDGHTTSLYGIGFGPFIITNKHLFRRNNGTLVVQSLHGVFKVKDTTTLQQHLVDGRDMIIIRMPKDFPPFPQKLKFREPQREERICLVTTNFQTKSMSSMVSDTSCTFPSGDGIFWKHWIQTKDGQCGSPLVSTRDGFIVGIHSASNFTNTNNYFTSVPKNFMELLTNQEAQQWVSGWRLNADSVLWGGHKVFMVKPEEPFQPVKEATQL [F6T],0.118,–,0.0703,0.0533,–
MGESLFHGPRDYNPISSSICHLTNESDGHTTSLYGIGFGPFIITNKHLFRRNNGTLVVQSLHGVFKVKDTTTLQQHLVDGRDMIIIRMPKDFPPFPQKLKFREPQREERICLVTTNFQTKSMSSMVSDTSCTFPSGDGIFWKHWIQTKDGQCGSPLVSTRDGFIVGIHSASNFTNTNNYFTSVPKNFMELLTNQEAQQWVSGWRLNADSVLWGGHKVFMVKPEEPFQPVKEATQL [K7H],0.0823,–,0.0761,–,–
MGESLFWGPRDYNPISSSICHLTNESDGHTTSLYGIGFGPFIITNKHLFRRNNGTLVVQSLHGVFKVKDTTTLQQHLVDGRDMIIIRMPKDFPPFPQKLKFREPQREERICLVTTNFQTKSMSSMVSDTSCTFPSGDGIFWKHWIQTKDGQCGSPLVSTRDGFIVGIHSASNFTNTNNYFTSVPKNFMELLTNQEAQQWVSGWRLNADSVLWGGHKVFMVKPEEPFQPVKEATQL [K7W],0.0789,0.0859,–,–,–
MGESLFKGPRTYNPISSSICHLTNESDGHTTSLYGIGFGPFIITNKHLFRRNNGTLVVQSLHGVFKVKDTTTLQQHLVDGRDMIIIRMPKDFPPFPQKLKFREPQREERICLVTTNFQTKSMSSMVSDTSCTFPSGDGIFWKHWIQTKDGQCGSPLVSTRDGFIVGIHSASNFTNTNNYFTSVPKNFMELLTNQEAQQWVSGWRLNADSVLWGGHKVFMVKPEEPFQPVKEATQL [D11T],0.0969,0.0874,0.064,–,–
MGESLFKGPRDYNPISSSICHLTNESDGHTTSLYDIGFGPFIITNKHLFRRNNGTLVVQSLHGVFKVKDTTTLQQHLVDGRDMIIIRMPKDFPPFPQKLKFREPQREERICLVTTNFQTKSMSSMVSDTSCTFPSGDGIFWKHWIQTKDGQCGSPLVSTRDGFIVGIHSASNFTNTNNYFTSVPKNFMELLTNQEAQQWVSGWRLNADSVLWGGHKVFMVKPEEPFQPVKEATQL [G35D],0.0486,–,0.0494,0.0252,0.0322
MGESLFKGPRDYNPISSSICHLTNESDGHTTSLYGICFGPFIITNKHLFRRNNGTLVVQSLHGVFKVKDTTTLQQHLVDGRDMIIIRMPKDFPPFPQKLKFREPQREERICLVTTNFQTKSMSSMVSDTSCTFPSGDGIFWKHWIQTKDGQCGSPLVSTRDGFIVGIHSASNFTNTNNYFTSVPKNFMELLTNQEAQQWVSGWRLNADSVLWGGHKVFMVKPEEPFQPVKEATQL [G37C],0.0685,–,–,–,–
MGESLFKGPRDYNPISSSICHLTNESDGHTTSLYGIGFGPFIITNKHLFRRNNGTLVVQGLHGVFKVKDTTTLQQHLVDGRDMIIIRMPKDFPPFPQKLKFREPQREERICLVTTNFQTKSMSSMVSDTSCTFPSGDGIFWKHWIQTKDGQCGSPLVSTRDGFIVGIHSASNFTNTNNYFTSVPKNFMELLTNQEAQQWVSGWRLNADSVLWGGHKVFMVKPEEPFQPVKEATQL [S60G],0.0403,–,–,–,–
MGESLFKGPRDYNPISSSICHLTNESDGHTTSLYGIGFGPFIITNKHLFRRNNGTLVVQSLHGVFKVKDTTTLQQHLVDLRDMIIIRMPKDFPPFPQKLKFREPQREERICLVTTNFQTKSMSSMVSDTSCTFPSGDGIFWKHWIQTKDGQCGSPLVSTRDGFIVGIHSASNFTNTNNYFTSVPKNFMELLTNQEAQQWVSGWRLNADSVLWGGHKVFMVKPEEPFQPVKEATQL [G80L],0.0753,0.0656,–,0.0761,0.0504
